The campaign covered roughly 46,000 compounds. About 60 (0.1%) were called active. Another 3% or so got no clear call; they are omitted. Calls follow the shape of the dose curve; as a rule, active = well fitted inhibition curve with a large enough effect; inconclusive = small, poorly fitted or top-dose-only effect; inactive = no such curve, though single readings can be large or run the other way. This is one part of the list.
Assay: Primary qHTS assay for Inhibitors of ovarian cancer metastasis using an organotypic tumor microenvironment (TME) model. Also: nearly all actives have a fitted effect of over 65% in size.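 As to activity change, negative = inhibition: plate controls were DMSO wells for no effect and tomatine positive control wells for full effect.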
Settings: SKOV3ip1-GFP adhesion/invasion on 3D omental model, fluorescence; series mostly up to 45.8 µM; activity change, negative = inhibition: at the top concentration
Outline: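 A 3D layer of primary human omental fibroblasts, mesothelial cells, fibronectin and collagen I, grown 48 hr, received SKOV3ip1-GFP cells in serum-free medium plus compounds at 0.36-46 umol/L. After 2 hr RT and 16 hr 37 C, fixed adherent GFP cells were counted; normalized to DMSO and tomatine.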

Activity change, negative = inhibition, inactive:
CC(C)c1ccc(S(=O)(=O)N2CCN(Cc3cccc(F)c3)CC2)cc1 -2.46%
COc1ccccc1CCNC(=O)Cc1c(C)c2cc(Cl)c(O)cc2oc1=O 9.89%
COc1ccc(NC(=O)CSc2ncc3c(n2)-c2ccccc2N(Cc2ccc(C)cc2)S3(=O)=O)cc1Cl 3.53%
CCOC(=O)C1CCN(C(=O)c2cc3sc(C)cc3n2C)CC1 -2.3%
CCOc1ccc(-c2cccc(NS(=O)(=O)c3ccc(C)s3)c2)nn1 3%
O=C(CCC1N=C2c3ccccc3N=C(SCC(=O)Nc3cccc(Cl)c3)N2C1=O)NCc1ccco1 (stereo unspecified) 5.93%
CCCCOc1ccc(C(=O)Nc2ccc3c(c2)CCCN3C(=O)c2cccs2)cc1 0.041%
Cc1nc2nc(NC(=O)c3ccc(C(C)(C)C)cc3)[nH]n2c(=O)c1C 7.12%
CCOC(=O)C1CCC(CN(Cc2ccc(Cl)cc2)S(=O)(=O)c2cccc(Cl)c2C)CC1 (stereo unspecified) 1.27%
O=C(CSc1ncc(-c2ccccc2)[nH]1)Nc1ccccc1 -8.73%
CCOC(=O)C1CCN(C(=O)c2ccccc2NC(=O)c2nsc3ccccc23)CC1 25%
CCn1cc(C(=O)NCCCOC(C)C)c(=O)c2cc(S(=O)(=O)N3CCOCC3)ccc21 1.45%
CCc1ccc(OCC2c3cc(OC)c(OC)cc3CCN2C(=O)c2ccc(S(=O)(=O)N3CCCC3)cc2)cc1 (stereo unspecified) 0.358%
COC(=O)c1ccc2c(=O)n(CCCCCC(=O)NCCc3ccccc3)c(=O)[nH]c2c1 23.5%
COc1cccc(CN2C(=O)CN(C3CCCCC3)C(=O)C2c2ccc(OC(C)C)c(OC)c2)c1 (stereo unspecified) -24.5%
O=C(Cn1ccc2cc(S(=O)(=O)N3CCCCCC3)ccc21)NCc1ccccc1Cl 3.23%
COc1ccc(-c2nc(Cn3c(=O)cc(C)c4c(C)nn(-c5ccccc5)c43)c(C)o2)cc1OC -5.26%
O=C(CSc1nc2c([nH]c3ccccc32)c(=O)n1-c1ccccc1)Nc1ccc2c(c1)OCO2 5.27%
COc1ccc(N2CCN(C(CNS(=O)(=O)c3ccc(OC)c(C)c3)c3ccco3)CC2)cc1 (stereo unspecified) -1.94%
Cc1cccn2c(=O)c3cc(C(=O)NCC(C)C)sc3nc12 -16%
COc1ccc(C)cc1-n1c(-c2ccc(Cl)cc2)cc2c1CC(C)(C)CC2=O -17%
O=S(=O)(c1ccc(Cl)cc1)c1nnn2c1nc(NC1CCCC1)c1sccc12 -5.15%
CN(CCOc1ccc(CC2SC(=O)NC2=O)cc1)c1ccccn1 (stereo unspecified) -5.08%
O=C(NCCc1ccc(Cl)cc1)C1CCN(Cc2cc3ccccc3n2Cc2ccccc2)CC1 -8.62%
CCOc1ccc(NC(=O)c2c(C)oc3nc(C)nc(N4CCCC4)c23)cc1 19%
COc1cccc(C(=O)Nc2ccc3nc(SCC(=O)N(C)c4ccccc4)sc3c2)c1 -8.39%
Cc1ccc(CNC(=O)c2ccc(CSc3nc4ccncc4n3Cc3ccc(C)cc3)cc2)cc1 -10.9%
Fc1ccc(CN2CCc3nc(N4CCN(c5ccccc5F)CC4)ncc3C2)c(F)c1 -8.07%
Cc1ccc(Cc2nc3ccccc3nc2SCC(=O)N2CCC(C)CC2)cc1 3.22%
Cc1ccc(NC(=O)Cn2c(=O)n(-c3ccc(C)cc3)c(=O)c3c2cnn3C)cc1 -4.39%
Cc1ccc(-n2nc(C)c3c(C)c(CCC(=O)NC(C)c4ccccc4)c(C)nc32)cc1 (stereo unspecified) 1.45%
COc1ccccc1CCNC(=O)c1cccn1-c1nnc(N2CCCC2)s1 5.31%
CCOc1ccc(-c2cc(NC(=O)c3ccccc3)c(C(=O)OC)s2)cc1 2.1%
CCOc1ccc(C2C(C(=O)Nc3ccccc3)=C(C)Nc3nc(-c4ccccc4Cl)nn32)cc1OC (stereo unspecified) 5.03%
COc1ccc(CNC(=O)Cn2c(=O)oc3cc(S(=O)(=O)NCc4ccccc4)ccc32)cc1 -0.919%
Cc1ccccc1NC(=O)C(=O)NCC(c1ccc2c(c1)OCO2)N1CCN(c2ccccc2)CC1 (stereo unspecified) 12.7%
Cc1ccc(Cl)cc1N1CCN(c2ncnc3c2nc2n3CCCC2)CC1 -3.78%
CCCN(C(=O)c1cc(S(=O)(=O)N2CCc3ccccc32)cn1C)c1ccc(OCC)cc1 -7.34%
CCCn1c2ccccc2c2cnn(CC(=O)NCCCN3CCCCC3CC)c(=O)c21 (stereo unspecified) -10.5%
O=C(Cn1nc(C(F)(F)F)c2c1CCCC2)Nc1cccc(Cl)c1 -9.8%
CCC(C)NC(=O)c1cc(Sc2cccc(Cl)c2)nc2ccccc12 (stereo unspecified) 3.4%
FC(F)(F)c1cccc(N2CCN(c3ncnc4c3nc3n4CCCC3)CC2)c1 2.64%
NC1=N[C@H]2[C@H](CS[C@H]2CCCCC(=O)O)N1 9.47% [at 23.2 µM]
COc1ccc(NC(=O)c2cc3c(-c4ccccc4F)nn(C)c3s2)c(OC)c1 -3.71%
CCOc1ccc(Nc2cc(C)nc3nncn23)cc1 -2.85%
COc1cccc(C(=O)CC2(O)C(=O)N(Cc3ccccc3)c3ccccc32)c1 (stereo unspecified) -19.5%

outcome, inactive:
CCCCOc1ccccc1C1CC(=O)Nc2ccc3ccccc3c21 (stereo unspecified)
COCCCn1c(=O)c2sccc2n2c(CCCC(=O)NCc3cccc(OC)c3)nnc12
Cc1ccc(N(C)C(=O)c2sc3nc4n(c(=O)c3c2C)CCCC4)cc1C
NC(=O)C1CCN(S(=O)(=O)c2cc3c(cc2Cl)NC(=O)CO3)CC1
CCN1C(=O)c2ccccc2S(=O)(=O)c2ccc(C(=O)NCc3ccccc3)cc21
CCOc1ccc(NS(=O)(=O)c2c(C)nc3sc(C)c(C)n3c2=O)cc1
CC(C)N(Cc1ccccc1)C(=O)c1nc(-c2ccc(Cl)cc2)n2c1CCCCC2
COc1cccc(NC(=O)c2c(C)nn(-c3cccc(C)c3)c2-n2cccc2)c1
Cc1cc(NC(=O)N2CCC(CN3CCCCCC3)CC2)ccc1Br
CCC1Sc2ccccc2N(CC(=O)NCc2ccc(C)cc2)C1=O (stereo unspecified)
COc1ccc(CCNC(=O)CCc2cn(Cc3ccccc3Cl)c3ccccc23)c(OC)c1
Cc1cc(C)c(NC(=O)Cn2c(=O)oc3cc(S(=O)(=O)N4CCCCCC4)ccc32)c(C)c1
CCN1CCN(Cc2c(O)ccc3oc(C)c(C(=O)Nc4cccc(Cl)c4C)c23)CC1
Cc1ccccc1NC(=O)Cn1cc(S(=O)(=O)c2ccccc2)c(=O)c2ccccc21
NC(=O)Cn1c(=O)n(CCCCCC(=O)NCc2ccc3c(c2)OCO3)c(=O)c2sccc21

From PubChem BioAssay AID1963576 (National Center for Advancing Translational Sciences (NCATS), 2024)
